Test results reported in PubChem BioAssay (NCATS).
This list was built around the results that the source calls inconclusive (neither active nor inactive); the mix of calls is not that of the screen. No potency is given beside an inconclusive call; the fits are too rough. Active and inactive are the calls of the source. Calls come from the whole dose curve; as a rule, active = well fitted inhibition curve with a large enough effect; inconclusive = small, poorly fitted or top-dose-only effect; inactive = no such curve, though single readings can be large or run the other way.

The compounds below were run against Rap guanine nucleotide exchange factor 3 (Homo sapiens) (UniProt O95398) (assay: Confirmatory qHTS for antagonist of cAMP-regulated guanine nucleotide exchange factor 3 (EPAC1) (AID 1645880; note: nearly all actives have a fitted effect of over 55% in size;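 for activity, negative = inhibition: plate controls were DMSO only for no effect and full effect of the ATA control for full effect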)). Settings: EPAC1 Rap1B-BODIPY-GDP exchange, fluorescence; activity, negative = inhibition: at 115 µM (top of the series).
UniProt O95398, sequence (O95398 whole entry, looked up): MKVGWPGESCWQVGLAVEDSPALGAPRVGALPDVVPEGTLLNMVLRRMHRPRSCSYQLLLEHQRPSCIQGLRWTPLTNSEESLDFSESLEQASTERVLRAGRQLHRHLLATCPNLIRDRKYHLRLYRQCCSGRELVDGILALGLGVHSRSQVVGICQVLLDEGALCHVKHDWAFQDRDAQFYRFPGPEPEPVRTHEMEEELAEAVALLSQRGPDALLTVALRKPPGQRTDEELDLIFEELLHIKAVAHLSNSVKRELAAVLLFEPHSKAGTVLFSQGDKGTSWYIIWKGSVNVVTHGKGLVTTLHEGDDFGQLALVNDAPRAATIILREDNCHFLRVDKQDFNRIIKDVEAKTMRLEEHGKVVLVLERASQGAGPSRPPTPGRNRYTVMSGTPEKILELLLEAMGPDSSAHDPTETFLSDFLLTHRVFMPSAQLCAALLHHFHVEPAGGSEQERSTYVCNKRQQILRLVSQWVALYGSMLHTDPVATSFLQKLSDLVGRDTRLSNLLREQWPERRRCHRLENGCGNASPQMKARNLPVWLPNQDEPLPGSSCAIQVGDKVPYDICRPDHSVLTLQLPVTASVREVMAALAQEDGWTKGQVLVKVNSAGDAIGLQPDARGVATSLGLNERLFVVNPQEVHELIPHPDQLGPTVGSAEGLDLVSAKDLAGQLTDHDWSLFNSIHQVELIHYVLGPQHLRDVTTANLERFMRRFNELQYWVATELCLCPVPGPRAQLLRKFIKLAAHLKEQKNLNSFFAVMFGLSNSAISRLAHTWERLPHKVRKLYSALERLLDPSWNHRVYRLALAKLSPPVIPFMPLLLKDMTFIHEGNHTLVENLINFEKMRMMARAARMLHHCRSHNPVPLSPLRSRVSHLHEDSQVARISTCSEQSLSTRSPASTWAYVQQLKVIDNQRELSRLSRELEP
Method in brief: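 Released BODIPY-GDP fluoresces less than Rap1-bound BODIPY-GDP; the signal is followed at 480/540 nm at 5-min intervals over 30 min, after 5 min at room temperature. Reactions contain 100 nM EPAC1, 250 nM RAP1B-BODIPY-GDP and 50 uM GDP; results are normalized to ATA and DMSO.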
Potency is the fitted concentration of half-maximal effect; tags give direction and shape of the fitted curve.

| Compound | activity, negative = inhibition | Potency |
| --- | --- | --- |
| COC(=O)CSc1nc(C)cc(Oc2ccccc2)n1 | inactive: -4.91% |  |
| CC(=O)NC(c1cccc(F)c1)c1nc(-c2ccccc2)cs1 (centres undefined) | inactive: -18.5% |  |
| CC(C)C[C@H](NC(=O)C1(c2ccccc2)CCN(C(=O)OC(C)(C)C)CC1)C(=O)N1CCC[C@H]1C(=O)O |  | inconclusive [inhibitor, partial curve] |
| COc1cccc(/C=N/Nc2ccc(S(=O)(=O)Nc3ccccc3C(=O)O)cc2[N+](=O)[O-])c1O |  | inconclusive [inhibitor, full curve] |
| O=C(c1ccccc1)c1ccc(O)cc1O | inactive: 16% |  |
| COc1ccc(C(=O)c2ccc(Br)cc2)c(OC)c1OC |  | inconclusive [inhibitor, partial curve, poor fit] |
| Cc1nc2ccccc2c(C)c1C(=O)c1ccccc1 |  | inconclusive [inhibitor, full curve, poor fit] |
| CCC1(c2ccccc2)NC(=O)N(CC(=O)Nc2ccc(OC)nc2)C1=O (centres undefined) | inactive: 4.79% |  |
| Cc1ccc2c(c1C)OC(=O)CC2c1ccccc1 (centres undefined) | inactive: -19.6% |  |
| O=CN(CCN(C=O)CN1CCCCC1)CN1CCCCC1 | inactive: -11.3% |  |
| CCOc1ccccc1NC(=O)CSc1nccn1-c1cccc(C)c1 | inactive: -34.1% |  |
| COc1ccc(-c2nc(N/N=C(\C)c3ccc(O)cc3)c3ccccc3n2)cc1 | inactive: -18.4% |  |
| CCC(CC)C(=O)Nc1nc(-c2ccc3c(c2)CCN3C(=O)C2CC2)c(C)s1 |  | inconclusive [inhibitor, full curve, poor fit] |
| CCOC(=O)c1cc(-c2ccc(/C=C3/C(=O)N(c4ccc(C(=O)O)cc4)N=C3C)o2)ccc1Cl |  | inconclusive [inhibitor, full curve] |
